# Experimental data taken from PubChem BioAssay (Tox21).
# “And” between values parts separate entries of the source, which are not always exact repeats. Equal values may be shown once. This list was built around the results that the source calls inconclusive (neither active nor inactive); the mix of calls is not that of the screen. Potencies of inconclusive entries are doubtful fits and often do not repeat. Some compounds were tested as several samples or in several runs, with calls that do not always agree. The source made the active and inactive calls. Calls come from the whole dose curve; as a rule, active = well fitted cell-killing curve with a large enough effect in the repeat runs; inconclusive = weak or mixed curves; inactive = no such curve, though single readings can be large or run the other way.
# Assay: qHTS assay to identify small molecule antagonists of the androgen receptor (AR) signaling pathway - cell viability counter screen (AID 743033; note: nearly all actives have a fitted effect of over 45% in size)
# Settings: AR-bla HEK293 viability, CellTiter-Glo luminescence, 16 h; series mostly up to 58.5 µM
# Potency is the fitted concentration of half-maximal effect; tags give direction and shape of the fitted curve.
row,SMILES,Potency
1,Clc1ccc(C(c2ccccc2Cl)C(Cl)Cl)cc1 (stereo unspecified),"inconclusive: 43.6 µM [cytotoxic, partial curve, poor fit]"
2,C#CC1(O)CC[C@H]2[C@@H]3CCC4=CCCC[C@@H]4[C@H]3CC[C@@]21C (stereo partly specified),inconclusive: 54.9 µM [cytotoxic]
3,COc1cc(Cc2cnc(N)nc2N)cc(OC)c1OC,inactive
4,CC(C)CCCCCCc1ccc(O)cc1,"inconclusive: 19.8 µM [cytotoxic, full curve] and inconclusive: 21.9 µM [cytotoxic]"
5,CC(=O)N1CCN(c2ccc(OC[C@H]3CO[C@](Cn4ccnc4)(c4ccc(Cl)cc4Cl)O3)cc2)CC1,active: 19.5 µM
6,O=C(Nc1ccccc1)c1cc(Cl)ccc1O,active: 11 µM
7,CC(C)c1ccc2sc3ccccc3c(=O)c2c1,"inconclusive: 38.9 µM [cytotoxic, partial curve]"
8,S=C(SSSSSSC(=S)N1CCCCC1)N1CCCCC1,active: 0.68 µM
9,COc1cc([C@@H]2c3cc4c(cc3[C@@H](O[C@@H]3O[C@@H]5CO[C@@H](C)O[C@H]5[C@H](O)[C@H]3O)[C@H]3COC(=O)[C@H]23)OCO4)cc(OC)c1O,"inconclusive: 6.01 µM [cytotoxic, full curve] and inconclusive: 2.43 µM [cytotoxic, full curve]"
10,S=P(N1CC1)(N1CC1)N1CC1,"inconclusive: 65 µM [cytotoxic, single point]"
11,CC1=C(/C=C/C(C)=C/C=C/C(C)=C\C(=O)O)C(C)(C)CCC1,"inconclusive: 34.8 µM [cytotoxic, partial curve, poor fit]"
